Experimental data: PubChem BioAssay AID686979 (National Center for Advancing Translational Sciences (NCATS), 2013)
In all, about 420,000 compounds went through this assay and about 50,000 (12%) were called active. Inconclusive results, whose numbers are uncertain, are shown with a selection of clear calls. Calls come from the whole dose curve; as a rule, active = well fitted inhibition curve with a large enough effect; inconclusive = small, poorly fitted or top-dose-only effect; inactive = flat fitted curve, though single readings scatter. No potency is given beside an inconclusive call; the fits are too rough.
Potency is the fitted concentration of half-maximal effect; tags give direction and shape of the fitted curve.

Assay: qHTS for Inhibitors of human tyrosyl-DNA phosphodiesterase 1 (TDP1): qHTS in cells in presence of CPT; note: nearly all actives have a fitted effect of over 55% in size
Details: chicken DT40 Tdp1-/-;hTDP1 cells + 20 nM CPT, ATP luminescence, 48 h; series mostly up to 46.2 µM
Outline: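 Cell growth measured by CellTiter-Glo luminescence after a minimum 48 h, 37 C compound exposure with 20 nM CPT in Tdp1-knockout DT40 cells stably expressing hTDP1, seeded 400/well; qHTS titration format.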
In the case of `O=C(Oc1c(Cl)cc(Cl)c2ccccc12)N1CCCCC1`, the Potency is reported as inconclusive [inhibitor, single point]. For `CC(C)=CCCC1(C)C=Cc2c(O)c3c(c(CC=C(C)C)c2O1)OC12C(=CC4CC1C(C)(C)OC2(C/C=C(/C)C(=O)O)C4=O)C3=O` (stereo unspecified), the Potency was active: 0.92 µM. With `CCOc1ccc(C2SCC(=O)Nc3c2c(C)nn3C2CCOC(C)(C)C2)cc1` (stereo unspecified) the Potency was “inactive”. With `CCOC(=O)C1(c2ccccc2)CCN(CCC(=O)Nc2cccc(Br)c2)CC1` the Potency was inconclusive [inhibitor, single point]. In the case of `C=C(C)[C@H]1C2C(=O)O[C@H]1[C@H]1OC(=O)[C@@]34O[C@@H]3C[C@]2(O)[C@@]14C`, the Potency is reported as “inactive”. With `O=C(NN=Cc1ccc(N(CCCl)CCCl)cc1)c1cc(=O)[nH]c(=O)[nH]1` the Potency was inconclusive [inhibitor, single point]. With `CC(=O)NC1=C(N2CC2C)C(=O)C(NC(C)=O)=C(N2CC2C)C1=O` (stereo unspecified) the Potency was active: 1.84 µM. In the case of `CCOc1cc(CNCCc2c[nH]c3ccccc23)cc(Cl)c1OC`, the Potency is reported as active: 8.2 µM. In the case of `CN(C)CCc1c[nH]c2cccc(O)c12`, the Potency is reported as inconclusive [inhibitor, partial curve]. In the case of `CC(C)CCNC(=O)c1c(N)n(Cc2ccc3c(c2)OCO3)c2nc3ccccc3nc12`, the Potency is reported as inconclusive [inhibitor, single point]. In the case of `c1ccc(CCNCc2cccs2)cc1`, the Potency is reported as “inactive”. In the case of `O=C1CN=C(c2cccs2)c2c(sc3c2CCCC3)N1`, the Potency is reported as active: 16.4 µM. With `C[C@@H]1CN([C@@H](C)CO)C(=O)CCCn2cc(nn2)CO[C@H]1CN(C)C(=O)Oc1cccc2ccccc12` the Potency was “inactive”. For `Cc1cccc(N2C(=O)NC(=O)/C(=C\C=C\c3ccco3)C2=O)c1`, the Potency was active: 2.91 µM. For `COC(=O)C1=C(c2ccc(F)cc2OCc2ccccc2)C[C@@H]2CC[C@H]1N2C(=O)N1CCCC1`, the Potency was active: 6.51 µM. With `O=C(CN1CCN(C(=O)COc2cccc(F)c2)CC1)Nc1ccc(Cl)c(C(F)(F)F)c1` the Potency was active: 20.6 µM. In the case of `O=c1ccc2cc(O[C@@H]3O[C@H](CO)[C@@H](O)[C@H](O)[C@H]3O)c(O)cc2o1`, the Potency is reported as “inactive”. For `COc1ccc(N=C(C)c2c(O)n(C)c(=O)n(C)c2=O)c(OC)c1`, the Potency was inconclusive [inhibitor, single point]. For `O=C(CCN1CC2CCC(CC2)C1)c1cccs1`, the Potency was active: 2.06 µM. In the case of `C1=C(c2c[nH]c3ccccc23)CCN(Cc2ccccc2)C1`, the Potency is reported as active: 9.2 µM. In the case of `Cc1cccc(CN2C(=O)CN=C(c3ccccc3)c3cc(Cl)ccc32)c1`, the Potency is reported as inconclusive [inhibitor, single point].
